Source: PMC4336329 (PLoS ONE, 2015)
About 2,200 (0.71%) of roughly 310,000 compounds showed an effect of 50% or more. Effects have a minus sign here. Some of the results follow.

What follows are compounds tested against human ether-à-go-go-related gene (hERG) potassium channel (human, UniProt Q12809) (assay: primary screen, population patch clamp on CHO cells stably expressing hERG).
Sequence of human ether-à-go-go-related gene (hERG) potassium channel (Q12809 whole entry, looked up): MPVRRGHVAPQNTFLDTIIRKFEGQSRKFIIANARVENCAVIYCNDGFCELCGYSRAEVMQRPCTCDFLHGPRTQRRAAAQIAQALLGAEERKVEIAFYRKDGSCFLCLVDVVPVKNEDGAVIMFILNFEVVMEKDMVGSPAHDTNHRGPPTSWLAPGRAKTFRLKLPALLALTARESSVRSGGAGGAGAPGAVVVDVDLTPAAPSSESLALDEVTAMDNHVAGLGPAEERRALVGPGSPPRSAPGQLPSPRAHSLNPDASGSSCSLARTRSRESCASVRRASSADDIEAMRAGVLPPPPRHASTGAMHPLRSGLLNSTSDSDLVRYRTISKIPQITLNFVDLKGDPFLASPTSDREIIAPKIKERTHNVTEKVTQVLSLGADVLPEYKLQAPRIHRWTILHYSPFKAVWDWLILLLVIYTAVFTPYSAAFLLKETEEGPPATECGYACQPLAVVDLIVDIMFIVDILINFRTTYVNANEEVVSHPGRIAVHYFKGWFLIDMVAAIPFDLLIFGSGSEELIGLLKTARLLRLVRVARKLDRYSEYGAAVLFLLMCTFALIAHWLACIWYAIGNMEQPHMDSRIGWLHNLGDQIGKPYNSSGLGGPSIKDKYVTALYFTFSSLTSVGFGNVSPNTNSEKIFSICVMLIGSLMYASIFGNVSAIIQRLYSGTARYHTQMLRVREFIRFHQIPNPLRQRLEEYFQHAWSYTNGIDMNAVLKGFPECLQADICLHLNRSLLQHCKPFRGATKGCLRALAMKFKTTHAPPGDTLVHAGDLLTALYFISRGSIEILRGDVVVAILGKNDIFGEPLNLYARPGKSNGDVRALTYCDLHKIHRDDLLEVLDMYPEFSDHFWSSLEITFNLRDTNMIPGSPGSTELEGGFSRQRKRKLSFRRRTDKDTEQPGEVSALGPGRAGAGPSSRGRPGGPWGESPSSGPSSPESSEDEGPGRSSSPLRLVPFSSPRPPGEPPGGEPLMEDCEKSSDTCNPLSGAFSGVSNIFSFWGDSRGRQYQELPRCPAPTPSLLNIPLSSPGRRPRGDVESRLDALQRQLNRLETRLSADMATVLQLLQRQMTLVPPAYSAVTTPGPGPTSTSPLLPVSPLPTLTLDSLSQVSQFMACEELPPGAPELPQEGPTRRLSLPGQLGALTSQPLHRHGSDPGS

| SMILES | hERG current change (%, negative = inhibition) at 1uM [%] |
| --- | --- |
| Cl.NC(Cc1ccccc1)C(=O)N1CCCCC1 (centres unmarked) | 1.55 |
| COc1ccc2c(c1)cc(C(=O)N/N=C/c1c(O)c(C(=O)O)cc3ccccc13)n2C | 13.9 |
| COCCCn1c(=O)c2ccccc2n(Cc2cccc(C)c2)c1=O | 12.9 |
| Cc1ccc(OCc2n[nH]c(=S)n2-c2ccc(Cl)cc2)cc1 | 11 |
| COc1ccc(C2CC(c3cccs3)=NN2S(C)(=O)=O)cc1OC (centres unmarked) | 7.26 |
| Cc1cccc2nc(CSc3nc4cc([N+](=O)[O-])ccc4s3)cn12 | 1.31 |
| Nc1ccc2c(c1)C(=O)c1ccccc1-2 | 14.3 |
| CCOc1ccccc1N(CC(=O)N1CCCC1)S(C)(=O)=O | 16.3 |
| CCCCCC(=O)Nc1ccc(N2CCN(C(=O)c3ccccc3)CC2)cc1 | -21.9 |
| CCOC(=O)c1cnc2nc(Cc3ccccc3)[nH]n2c1=O | 8.72 |
| CC1(C)Cc2ccccc2C(c2cc3ccccc3oc2=O)=N1 | 1.69 |
| O=c1[nH]ncn1-c1ccccc1C(F)(F)F | 10.3 |
| O=C(N/C(=C\c1ccc(Br)cc1)c1nc2ccccc2[nH]1)c1ccco1 | 10.1 |
| Cc1ccc2cc(CN(CCCO)S(=O)(=O)c3cccc4nsnc34)c(=O)[nH]c2c1 | 5.74 |
| CCOc1ccc(S(=O)(=O)Nc2cccc(-c3ccc(N4CCCCCC4)nn3)c2)cc1 | 19 |
| CC(=O)Oc1ccc(N(c2ccccc2)S(=O)(=O)c2ccc(C)cc2)cc1 | 6.3 |
| Cc1ccc(C)c(C(=O)Nc2c(C(N)=O)oc3ccccc23)c1 | 4.71 |
| Cc1cc(S(=O)(=O)NC2CC(C)(C)NC(C)(C)C2)c(Cl)cc1Cl | 7.69 |
| COCCCNC(=O)Cn1nc(-c2ccc(C)cc2)ccc1=O | 13.7 |

| SMILES | hERG current change (%, negative = inhibition) at 1uM [%] |
| --- | --- |
| Nn1c(SC/C=C/c2ccccc2)nnc1-c1ccco1 | 2.02 |
| COCc1nc(-c2ccc(-c3ccc(C)cc3)nc2OC)no1 | 4.81 |
| COc1ccccc1NC(=O)CC(=O)CSc1nnc(-c2ccc(C)cc2)n1-c1ccccc1 | 13.8 |
| COc1ccc(S(=O)(=O)N2CCC(C(=O)N[C@@H](C)C(=O)NC3CCCC3)CC2)cc1 | 16.6 |
| CCCCN(C)C(=O)c1cc2cc3cc(OC)ccc3nc2o1 | -0.194 |
| C=CCn1c(SCCOc2ccc(OC)cc2)nnc1C(CO)NC(=O)c1ccc(OC)cc1 (centres unmarked) | 3.07 |
| CCc1ccc(NC(=O)N[C@H](C(=O)O)C(C)CC)cc1 (some centres unmarked) | 12.4 |
| O=C(COC(=O)c1cnccn1)NCCc1ccccc1 | 10.8 |
| COc1ccc(NCc2nn(CC(=O)c3ccc(Br)cc3)c3[n+]2CCCCC3)cc1.[Br-] | 13 |
| CC(=O)c1cc2c(cc1NC(=O)CCn1cccc1)OCO2 | 3.55 |
| FC(F)(F)c1nc(SCc2ccc(Cl)cc2Cl)n[nH]1 | 4.63 |
| Cc1ccc(NC2CCCN(C(=O)c3cc(C(C)C)[nH]n3)C2)cc1C (centres unmarked) | -0.968 |
| O=C(CNc1cccc2ccccc12)c1ccc([N+](=O)[O-])cc1 | 4.77 |
| CCC(C)NC(=O)CO/N=C/c1ccc(C(=O)OC)cc1 (centres unmarked) | 14.1 |
| COc1cccc(-n2c(SCc3c(C)noc3C)nnc2-c2cccc(S(=O)(=O)N(C)C)c2)c1 | 2.87 |
| Cc1ccccc1NC(=O)c1ccc(CSc2ncccn2)cc1 | 6.41 |
| COCCCNc1nc(N)c([N+](=O)[O-])c(Nc2cc(OC)ccc2OC)n1 | 14.4 |
| CC(CC(=O)Nc1ccc(Cl)c([N+](=O)[O-])c1)c1ccccc1 (centres unmarked) | 11.5 |
| Cc1ccc(C)c(NC(=O)CCC(=O)NNC(=O)c2cccc([N+](=O)[O-])c2)c1 | -7.94 |

| SMILES | hERG current change (%, negative = inhibition) at 1uM [%] |
| --- | --- |
| CCOC(=O)N1CCC(NC(=O)C2CCCN(S(C)(=O)=O)C2)CC1 (centres unmarked) | 13.8 |
| COc1cc(-c2c(C#N)c(N)nc3c2CCCC3)ccc1O | 10.2 |
| Cc1ccc2c(c1)C(CCN)C(=O)N2Cc1ccccc1.Cl (centres unmarked) | 5.85 |
| OCC1(Cc2ccc(F)cc2)CCCN(CCc2ccccc2)C1 (centres unmarked) | -0.0287 |
| Cn1c(=O)c2ccccc2n(CC(=O)Nc2ccc3c(c2)OCCO3)c1=O | 13.2 |
| CCN(CC)S(=O)(=O)c1cc(NC(=O)[C@@H](NC(N)=O)C(C)C)ccc1C | 10.8 |
| NC(=O)Nc1n[nH]c(-c2ccccc2)n1 | 16.4 |
| CC(=O)Oc1ccc(-c2cc3c(OC(C)=O)cc(OC(C)=O)cc3oc2=O)cc1 | 15.7 |
| O=C1c2cccnc2-c2ncccc21 | 10.1 |
| COc1cccc(/C=C2\SC(=O)N(CCC(=O)NNC(=O)c3cccc(Cl)c3)C2=O)c1 | 2.7 |
| COc1ccc2sc(-c3ccccc3OC)c(-c3ccc(OC)nc3)c2c1 | 15 |
| Cc1ccc(N2OC3C(=O)NC(=O)C3C2c2ccco2)cc1 (centres unmarked) | 12.7 |
| O=C(Cc1sc(-c2ccccc2Cl)nc1-c1ccccc1)Nc1ccccc1 | 13.6 |
| COC(=O)CCCC1=CC2=C(c3ccccc3)C(=O)C(C)(OC(=O)C3CCCC3)C(=O)C2=CN1Cc1ccco1 (centres unmarked) | 4.57 |
| Cc1ccc(C(=O)c2ccccc2C(=O)OCC(=O)NC(=O)NC(C)(C)C)cc1 | 7.78 |
| O=C(c1cccc(S(=O)(=O)NCc2ccccc2)c1)N1CCN(c2cccc(C(F)(F)F)c2)CC1 | 13.9 |
| O=C(O)CSCC(=O)NCc1ccccc1Cl | 13.9 |
| COc1ccccc1/C=C/CN1CCN(Cc2ccc(F)cc2)C(CCO)C1 (centres unmarked) | 5.29 |
